# Measured values published in US20250179172A1 (HAINAN SIMCERE ZAIMING PHARMACEUTICAL, published 2025).
# T1: human CD5 (Arg25-Pro372)-His protein (Acro, Cat. No. CD5-H52H5) (human, UniProt P06127 25-372)
# T1 construct: range 25-372; also called human CD5-His; hCD5-His; not shown: His tag
# T1 sequence (looked up): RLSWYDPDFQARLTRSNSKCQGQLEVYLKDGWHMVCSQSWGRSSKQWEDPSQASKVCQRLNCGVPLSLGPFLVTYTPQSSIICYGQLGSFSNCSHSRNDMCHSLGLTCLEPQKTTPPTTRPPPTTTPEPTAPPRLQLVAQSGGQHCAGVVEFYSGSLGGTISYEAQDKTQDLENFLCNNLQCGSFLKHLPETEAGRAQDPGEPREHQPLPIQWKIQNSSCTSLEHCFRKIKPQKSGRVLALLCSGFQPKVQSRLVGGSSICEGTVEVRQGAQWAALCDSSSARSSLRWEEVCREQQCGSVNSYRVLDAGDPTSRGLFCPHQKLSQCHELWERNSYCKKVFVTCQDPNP
# B1: H65 scFv-hFc (Fc fusion)
# chain: NIQLVQSGPELKKPGETVKISCKASGYTFTNYGMNWVKQAPGKGLRWMGWINTHTGEPTYADDFKGRFAFSLETSASTAYLQINNLKNEDTATYFCTRRGYDWYFDVWGAGTTVTVSSGGGGSGGGGSGGGGSDIKMTQSPSSMYASLGERVTITCKASQDINSYLSWFHHKPGKSPKTLIYRANRLVDGVPSRFSGSGSGQDYSLTISSLDYEDMGIYYCQQYDESPWTFGGGTKLEMK[human IgG1 Fc with changes not printed]
# notes: also called H65 antibody
# Biological target: T1, human CD5 (Arg25-Pro372)-His protein …
# Test: ELISA, plate coated with human CD5-His
# Method: The binding activity of the H65 antibody prepared above with human CD5 protein was subjected to ELISA assay. A purchased commercial antigen (human CD5-His) was diluted with PBS to obtain a final concentration of 2 μg/mL, and then added to a 96-well ELISA plate with 100 µL/well. The plate was sealed with a plastic film and incubated at 4° C. over the night, washed twice with PBS in the next day, added with a blocking solution [PBS+2% (w/w) BSA] and blocked at room temperature for 2 h. The blocking solution was drained out, and 100 nM of the H65 antibody or negative control antibody hIgG1 after gradient dilution was added, namely, the obtained product was the antibody Anti-HEL-hIgG1 against hen egg lysozyme (purchased from Biointron, Cat. No. B117901) with 50 μl per well. After incubation for 2 h at 37° C., the plate was washed for 3 times with PBS. A secondary antibody labeled with HRP (horseradish peroxidase) (A0170, purchased from Sigma) was added. After incubation for 2 h at 37° C., the plate was washed for 5 times with PBS. A TMB substrate was added with 50 μL/well and incubated at room temperature for 30 min, then a stop solution (1.0 N HCl) was added with 50 μL/well.
binder,measurement,value
B1,EC50 (read off the curve),~0.03 nM
